Reference: PubChem BioAssay AID1745853 (National Center for Advancing Translational Sciences (NCATS), 2022)
Several values for one entry are separate records, joined by “and”; a condition that tells them apart may be missing. Identical values can stand only once. The list shows a part of the results. Further columns of the screen follow, without active or inactive calls.

Key:
Test in all cases: Primary Screen for Target Class Profiling of Small Molecule Inhibitors of Methyltransferases
[1] = target: Glycine N-methyltransferase (Homo sapiens) (UniProt Q14749); conditions: purified enzyme, MTase-Glo SAH luminescence; measured here: GNMT inhibition; at 40 µM; stronger effect = lower value
Summary of the method: (§1)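 Each enzyme was assayed with SAM and its substrate. SAH formation detected by MTase-Glo luminescence; single-point 40 uM screen[…].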

[2] = target: Guanidinoacetate N-methyltransferase (Homo sapiens) (UniProt Q14353); conditions: purified enzyme, MTase-Glo SAH luminescence; measured here: GAMT inhibition; at 40 µM; stronger effect = lower value
Summary of the method: as §1

[3] = target: Histamine N-methyltransferase (Homo sapiens) (UniProt P50135); conditions: purified enzyme, MTase-Glo SAH luminescence; measured here: HNMT inhibition; at 40 µM; stronger effect = lower value
Summary of the method: as §1

[4] = target: Nicotinamide N-methyltransferase (Homo sapiens) (UniProt P40261); conditions: purified enzyme, MTase-Glo SAH luminescence; measured here: NNMT inhibition; at 40 µM; stronger effect = lower value
Summary of the method: as §1

[5] = target: Phenylethanolamine N-methyltransferase (Homo sapiens) (UniProt P11086); conditions: purified enzyme, MTase-Glo SAH luminescence; measured here: PNMT inhibition; at 40 µM; stronger effect = lower value
Summary of the method: as §1
% is set by controls: 0 for no effect and ±100 for the full control effect.

SMILES | activity change, negative = inhibition [1] | activity change, negative = inhibition [2] | activity change, negative = inhibition [3] | activity change, negative = inhibition [4] | activity change, negative = inhibition [5]
O=C(Nc1cc(F)ccc1F)N1Cc2c(sc3c2CCCC3)-n2cccc2C1c1ccc(F)cc1 (stereo not given) | -2.34% | 0.24% | -1.34% | -6.2% | 6.02%
CCCCN1C(=O)c2ccc(-c3ccco3)n2CC1(C)C(=O)NC1CCCCCCC1 (stereo not given) | -13% | 0% | -6.96% | -23.7% | -7.74%
CCCn1c(=O)c2ccc(Cl)cc2n2c(=O)n(CC(=O)Nc3ccc4c(c3)OCO4)nc12 | -3.78% | -5.96% | 11.5% | -9.78% | -3.93%
CN1CCN(C)c2cnc(-c3cnn(Cc4ccccc4)c3)cc2C1 | -17.8% | -17.7% | -66.2% | -25.8% | -17.9%
CCN1CCC[C@H]1CNC(=O)c1cc(S(N)(=O)=O)ccc1OC | -5.86% and 2.94% | -17% and 9.05% | -0.693% and -1.01% | -19.8% and -5.12% | -1.62% and 4.97%
COc1ccc(C(=O)N2CCC3(CCC3OC)CC2)cn1 (stereo not given) | -0.575% | 0.705% | -0.916% | -5.9% | 0.579%
O=C(CCN1CCN(C(=O)OCc2cc(Cl)cc(Cl)c2)CC1)c1ccc2[nH]c(=O)oc2c1 | 0.758% | 3.85% | 3.44% | -26.2% | -11.7%
O=C(/C=C/c1ccc(O)c(O)c1)OCc1ccccc1O[C@@H]1O[C@H](CO)[C@@H](O)[C@H](O)[C@H]1O | -0.649% | 7.14% | 6.04% | -7.01% | 4.8%
O=C(Nc1ccc(-c2ccncc2)cc1)N[C@H](CO)c1ccccc1 | -3.26% | 1.55% | -3.52% | -10.5% | -0.595%
Cc1ccccc1CN1C(=O)c2cc3ccccc3n2CC1(C)C(=O)NCCCOC(C)C (stereo not given) | 1.64% | 5.86% | 1.23% | 4.03% | -1.12%
Cc1cc2nc3n(c(=O)c2n1CC(=O)NCCc1ccc(Cl)cc1)CCCC3 | -5.19% | -10.3% | -2.65% | -12.9% | -5.71%
COc1ccc(Cl)cc1N1C(=O)CSc2c(c3ccccc3n2C)C1C(=O)NCCCOC(C)C (stereo not given) | 1.28% | 0% | -3.93% | -4.45% | -0.246%
C/C(=C/CO)CCC1C(C)CCC2C(C)(C)CCCC12C (stereo not given) | 2.1% | 5.27% | 2.06% | -12.8% | -1.64%
COc1cc(C2c3cc(O)c(OC)cc3CC(CO)C2CO)ccc1O (stereo not given) | -3.33% | 0.433% | 3.57% | -10.8% | 0.154%
CCC(C(=O)NCc1ccc(Cl)cc1)n1ccc2cc(S(=O)(=O)N3CCCCC3)ccc21 (stereo not given) | 3.95% | 0.759% | 1.95% | 5.37% | 3.13%
O=C(CCO[C@@H]1O[C@H](CO)[C@@H](O)[C@H](O)[C@H]1O)c1ccc(O)cc1 | 0% | 4.77% | 10.4% | -6.03% | 0.059%
COc1cc(C)c(C(=O)O[C@H]2[C@@H](OC(C)=O)[C@H](n3ccc(=O)[nH]c3=O)O[C@@H]2CO)c(OC)c1 | -0.62% | -4.51% | 6.91% | -14.7% | -2.76%
C=CCNC(=O)N[C@H]1CO[C@H]2[C@@H]1OC[C@@H]2Nc1nccc(C(C)(C)C)n1 | -4.1% | -3.38% | -2.11% | -3.89% | 3.58%
Cc1ccccc1CCNC(=O)Cn1ccc2cc(S(=O)(=O)N3CCCCC3)ccc21 | 0.457% | 5.04% | 4.11% | -1.9% | -7.53%
Cn1c(=O)n(C)c2cc(S(=O)(=O)Nc3ccc(Cl)cc3)ccc21 | -14% | -3.82% | -4.75% | -9.69% | -4.21%
O=C(CCn1ccc2cc(S(=O)(=O)N3CCCC3)ccc21)NC1CC1 | 7.45% | 0.444% | 8.07% | 11.2% | 7.37%
O=C(Nc1ccccc1C(F)(F)F)N1CCn2cccc2C1Cc1ccccc1 (stereo not given) | 0.105% | 0.388% | -4.29% | -1.63% | -3.37%
CCCCNc1ncc(-c2ccc(CN3CCOCC3)cn2)c(NC2CCC(O)CC2)n1 (stereo not given) | -3.17% | -3.04% | -1.54% | -12.9% | -2.03%
CCCn1c(=O)c2ccc(C(=O)NCC(C)C)cc2n2c(=O)n(CC(=O)c3ccc(OC)cc3)nc12 | -1.08% | 2.94% | 0.948% | -0.61% | -1.01%
O=C(CCc1cc2n(n1)CCNC2)NCc1nc2ccc(Cl)cc2[nH]1 | -4.33% | -2.02% | -3.09% | -5.57% | -30.9%
CN(c1ccccc1)c1cc(=O)c2ccnc(NCC3CCOCC3)c2o1 | -27.7% | -26.4% | -34.6% | -37% | -17.2%
CC(=O)Nc1c2n(c3ccccc13)CC(C)(C(=O)NC1CCCCCC1)N(C1CCCCCC1)C2=O (stereo not given) | -0.408% | 2.27% | -7.99% | -4.32% | 0.735%
CC(C)c1nccn1Cc1cc(C(=O)N(C)Cc2ccccc2Cl)n[nH]1 | -0.183% | -1.4% | -3.27% | -0.594% | 1.05%
O=C(c1cccc(-c2ccccn2)c1)N1CCN([S+](=O)([O-])c2ccccc2)CC1 | -5.53% | -4.49% | -5.28% | -15.9% | -13.8%
Cc1ccc(NC(=O)Cn2c(=O)oc3cc(S(=O)(=O)N4CCCC4)ccc32)cc1Cl | -5.33% | -4.25% | -8.67% | -9.01% | -27%
